Data taken from PubChem BioAssay AID1030 (National Center for Advancing Translational Sciences (NCATS), 2008).
In all, about 220,000 compounds went through this assay and about 16,000 (7.3%) were called active. Inconclusive means that the source gave no clear call. Such entries were picked first, then a sample of the others. Calls follow the shape of the dose curve; as a rule, active = well fitted inhibition curve with a large enough effect (not every such curve was filed as active); inconclusive = small, poorly fitted or top-dose-only effect, or another doubt; inactive = no such curve, though single readings can be large or run the other way. No potency is given beside an inconclusive call; the fits are too rough.

Each molecule was assayed against Aldehyde dehydrogenase 1A1 (Homo sapiens) (UniProt P00352) (assay: qHTS Assay for Inhibitors of Aldehyde Dehydrogenase 1 (ALDH1A1)). Details: Purified ALDH1A1, NADH fluorescence, propionaldehyde substrate; series mostly up to 75.3 µM; activity, negative = inhibition: at the top concentration.
UniProt P00352, sequence (P00352 whole entry, looked up): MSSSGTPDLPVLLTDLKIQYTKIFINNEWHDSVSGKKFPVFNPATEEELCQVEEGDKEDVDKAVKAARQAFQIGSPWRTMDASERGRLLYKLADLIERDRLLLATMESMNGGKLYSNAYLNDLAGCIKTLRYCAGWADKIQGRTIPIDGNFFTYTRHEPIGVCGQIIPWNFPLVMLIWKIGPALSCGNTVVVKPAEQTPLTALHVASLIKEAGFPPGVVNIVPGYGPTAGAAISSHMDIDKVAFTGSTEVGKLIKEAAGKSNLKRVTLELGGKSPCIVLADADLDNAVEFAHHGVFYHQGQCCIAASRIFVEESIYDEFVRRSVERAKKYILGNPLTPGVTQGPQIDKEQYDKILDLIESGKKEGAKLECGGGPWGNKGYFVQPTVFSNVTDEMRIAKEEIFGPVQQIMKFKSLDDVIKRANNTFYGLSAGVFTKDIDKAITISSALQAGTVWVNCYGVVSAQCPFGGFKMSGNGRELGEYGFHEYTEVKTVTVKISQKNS

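For activity, negative = inhibition in this document: plate controls were no enzyme wells and a reference inhibitor.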
Potency is read from the fitted curve at half-maximal effect; tags tell the direction and shape of the fitted curve.

SMILES | activity, negative = inhibition | Potency
O=C(O)c1cn(-c2ccc(F)cc2)c(=O)c2ccccc12 | inactive: -8.85% | 
Cc1cccc(C)c1NC(=O)COC(=O)Cc1ccsc1 | inactive: 11.1% | 
CCOC(=O)CSc1nc(C)cc(Oc2ccc(=O)n(C)n2)n1 | inactive: 6.48% | 
CC1CCC(C(C)C)C(OC(=O)Cn2c(-c3ccc(Br)cc3)[n+](C)c3ccccc32)C1 (stereo unspecified) |  | inactive
CCCC(=O)Nc1ccc(C(=O)n2ccc(C)n2)cc1 | inactive: 15.7% | 
COC(=O)c1ccc(NC(=S)NNC(=O)CC(C)C)cc1 | inactive: -0.175% | 
c1ccc(-n2ncc3c(NCC4CCCO4)ncnc32)cc1 (stereo unspecified) |  | inconclusive [inhibitor, single point]
Nc1c2c(nc3ccccc13)N(c1ccccc1)CC2 |  | inconclusive [inhibitor, partial curve]
O=c1oc2cc(O)ccc2c2oc3cc(O)ccc3c12 |  | inconclusive [inhibitor, partial curve]
O=C(CN(CCc1ccccc1)C(=O)CNS(=O)(=O)c1ccccc1)NCc1ccco1 | inactive: -13.5% | 
S=c1[nH]nc(-c2ccccc2Cl)n1CC1CCCO1 (stereo unspecified) |  | active: 14.1 µM
CC(C)c1ccccc1NC(=O)CNC(C)c1ccc(F)cc1 (stereo unspecified) | inactive: 10.7% | 
CC(C)c1nc(NCC2CCCO2)c(C#N)c2c1COC(C)(C)C2 (stereo unspecified) |  | inconclusive [inhibitor, partial curve]
O=C(COC(=O)CNC(=O)c1ccccc1)Nc1nc(-c2ccccc2)cs1 | inactive: -10.6% | 
COC(=O)c1ccc(C23CC2(C(NP(=O)(c2ccccc2)c2ccccc2)c2ccccc2)C3)cc1 (stereo unspecified) |  | active: 31.6 µM
Cc1cc(S(=O)(=O)N2CCN(c3c(C)cccc3C)CC2)ccc1F |  | inconclusive [inhibitor, single point]
CCOc1cccc2cc(-c3cn4cc(C)ccc4n3)c(=O)oc12 |  | inconclusive [inhibitor, single point]
Cc1ccc(S(=O)(=O)Oc2ccc(/C=C(/NC(=O)c3ccccc3)C(=O)Nc3ccccc3)cc2)cc1 |  | inconclusive [inhibitor, partial curve]
CCOC(=O)C1=C(CNC(C)(C)CC(C)(C)C)NC(=O)NC1c1cccc([N+](=O)[O-])c1 (stereo unspecified) | inactive: -11% | 
C=CCN1C(c2cccc(C(F)(F)F)c2)=CS/C1=C(/C#N)c1nnc(N2CCOCC2)n1-c1ccccc1 |  | active: 14.1 µM
O=C1NCCN1C(=O)N(c1ccccc1)c1ccccc1 |  | inconclusive [inhibitor, single point]
CN1C(=O)/C(=C/C=C2\SCCN2C)N(C)C1=S |  | inconclusive [inhibitor, partial curve]
COc1cccc(CC2CC(=O)N(CCc3ccc4c(c3)OCO4)C2=O)c1 (stereo unspecified) |  | inconclusive [inhibitor, single point]
Clc1ccc(CN(Cc2ccc(Cl)cc2)c2nn[nH]n2)cc1 |  | inconclusive [inhibitor, single point]
COc1ccc(Cn2nc(-c3ccccc3)c(N3CCCCC3)cc2=O)cc1 | inactive: -15.5% | 
Cc1ccc(OCC(=O)c2cc(C)c(C)cc2C)c([N+](=O)[O-])n1 |  | active: 3.55 µM

SMILES | activity, negative = inhibition | Potency
Fc1ccc(Nc2ncnc3ccc(-c4ccoc4)cc23)cc1 |  | inconclusive [inhibitor, single point]
Cc1ccc(-c2nc(CN3CCCCC3)cc(CN3CCCCC3)c2O)cc1 |  | inconclusive [inhibitor, partial curve]
COc1cc([N+](=O)[O-])ccc1NC(=O)CSc1ccccn1 | inactive: -13% | 
CC1CC(NS(=O)(=O)c2cccs2)CC(C)(C)C1 (stereo unspecified) |  | inconclusive [inhibitor, single point]
O=C(NCCNc1ccc([N+](=O)[O-])cc1C(F)(F)F)c1ccccc1 |  | active: 10 µM
CCC1CCCCN1C(=O)CSc1nnc(-c2cccs2)o1 (stereo unspecified) |  | inconclusive [inhibitor, partial curve]
CS(=O)(=O)Nc1cccc(-c2ccc3ncnc(NCc4cccnc4)c3c2)c1 | inactive: 6.06% | 
CN(C)/C=C(\C#N)C(N)=C(C#N)C#N | inactive: -3.35% | 
Cc1nn(CC(=O)OCC(=O)NC(C)c2ccccc2)c(C)c1[N+](=O)[O-] (stereo unspecified) | inactive: 9.31% | 
Cc1n[nH]c(C)c1C(=O)CC1(O)C(=O)N(CCc2ccccc2)c2ccc(Cl)cc21 (stereo unspecified) |  | inconclusive [inhibitor, partial curve]
c1ccc(NC2=Nc3cccc4cccc2c34)cc1 | inactive: -0.873% | 
CCc1ccc2nc(Nc3ccc(OC)cc3OC)c(C#N)cc2c1 | inactive: 9.46% | 
CCn1cc(Cl)c(C(=O)N2N=C(c3ccc4ccccc4c3)CC2c2ccccc2O)n1 (stereo unspecified) | inactive: 5.77% | 
COc1ccc2nc(NC(=O)Nc3ccccc3)sc2c1 | inactive: -1.63% | 
C/C(=N/NC(=O)c1ccccc1)C(=O)O |  | inconclusive [inhibitor, partial curve]
CCCC(=O)OCC(=O)Nc1ccc2c(c1)OCO2 |  | inconclusive [inhibitor, single point]
CSc1nc2ccc3nc(NC(=O)c4ccc(C)cc4)sc3c2s1 |  | inconclusive [inhibitor, single point]
Cc1ccc(S(=O)(=O)N2CCOCC2)cc1C(=O)NC(=S)N(Cc1ccccc1)C(C)C |  | inconclusive [inhibitor, single point]
C=C(C)C1CC=C(C)/C(=N/NC(=O)c2cccc([N+](=O)[O-])c2)C1 (stereo unspecified) |  | inconclusive [inhibitor, partial curve]
CCOC(=O)CSc1nc(C2CC2)nc2ccccc12 | inactive: -5.13% | 
N#CC(c1ccncc1)(c1ncc(C(F)(F)F)cc1Cl)N1CCOCC1 (stereo unspecified) |  | active: 0.398 µM
CCn1cc(C(=O)NCc2ccccc2OC)c(=O)c2cc(S(=O)(=O)N(C)C)ccc21 |  | active: 3.16 µM
CCOCC(=O)Nc1c(C(=O)Nc2ccc(OC)cc2OC)oc2ccccc12 |  | inconclusive [inhibitor, partial curve]
CC1(C)CC(=O)c2cc(OCC(=O)O)ccc2O1 |  | inconclusive [inhibitor, partial curve]
CCN(CC)C(=O)CSc1nc2c(sc(=S)n2-c2ccccc2)c(=O)n1Cc1ccco1 |  | active: 10 µM
